{
  "source": "PubChem BioAssay AID493035",
  "about": "(The Scripps Research Institute Molecular Screening Center, 2011)",
  "note": "Where “and” joins values, the source holds several entries; their conditions need not be identical. Equal values may be shown once. The whole screen tested about 2,000 compounds, of which about 45 (2%) were called active.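 Rule for the calls: active = inhibition above the mean of all tested compounds plus 3 SD (cut at about 49% in these data); inactive = the rest.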 Some of the results follow.",
  "data": [
    {"biological_target": "Perilipin-5 (Homo sapiens) + 1-acylglycerol-3-phosphate O-acyltransferase ABHD5 (Homo sapiens) (UniProt Q00G26+Q8WTS1)", "sequence (Q00G26 whole entry, looked up)": "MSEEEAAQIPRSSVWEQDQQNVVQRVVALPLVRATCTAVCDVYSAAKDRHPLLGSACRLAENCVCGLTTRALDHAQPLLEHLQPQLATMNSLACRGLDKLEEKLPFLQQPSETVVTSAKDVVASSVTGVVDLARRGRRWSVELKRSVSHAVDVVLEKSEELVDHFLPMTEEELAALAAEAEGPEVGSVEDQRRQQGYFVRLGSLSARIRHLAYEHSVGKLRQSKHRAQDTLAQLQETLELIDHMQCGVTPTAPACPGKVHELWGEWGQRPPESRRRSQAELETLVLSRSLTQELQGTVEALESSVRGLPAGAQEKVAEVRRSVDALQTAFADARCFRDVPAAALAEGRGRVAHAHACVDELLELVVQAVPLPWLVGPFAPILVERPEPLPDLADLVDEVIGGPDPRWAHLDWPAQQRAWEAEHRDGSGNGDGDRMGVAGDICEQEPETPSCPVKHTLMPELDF", "sequence (Q8WTS1 whole entry, looked up)": "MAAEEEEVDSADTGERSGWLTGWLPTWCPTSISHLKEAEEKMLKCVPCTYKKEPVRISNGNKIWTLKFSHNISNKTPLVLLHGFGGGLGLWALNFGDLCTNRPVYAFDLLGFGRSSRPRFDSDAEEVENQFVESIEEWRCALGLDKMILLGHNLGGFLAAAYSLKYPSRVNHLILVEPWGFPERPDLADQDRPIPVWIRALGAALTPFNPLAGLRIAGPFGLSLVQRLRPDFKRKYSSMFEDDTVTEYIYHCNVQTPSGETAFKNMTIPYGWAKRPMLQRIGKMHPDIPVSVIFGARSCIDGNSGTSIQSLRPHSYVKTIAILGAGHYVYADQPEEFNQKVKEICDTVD", "assay": "blockers of ABHD5 binding to perilipin-5 – cell lysate, split luciferase complementation, luminescence, NIH validation set, pilot screen (AID 493035);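 note: 0% = DMSO only wells while the 100% control is not stated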", "conditions": "split G. princeps luciferase complementation, lysates, 4 h; at 7.9 µM, active compounds read high", "values": [
      {"smiles": "Cc1ccc(N2C(=O)c3ccccc3C2=O)cc1C", "inhibition": "inactive: -3.44%"},
      {"smiles": "CN(CCc1cnn(C)c1)Cc1nc(CC2CC2)no1", "inhibition": "inactive: 2.59%"},
      {"smiles": "CCOC(=O)c1ccc2[nH]c(C)c(CCC(C)=O)c(=O)c2c1", "inhibition": "inactive: -10.6%"},
      {"smiles": "O=C(NCCc1c[nH]c2ccccc12)OCCSS(=O)(=O)O", "inhibition": "inactive: 6.19%"},
      {"smiles": "CCn1cc(C(=O)O)c(=O)c2cc(F)c(N3CCNCC3)cc21", "inhibition": "inactive: -3.3%"},
      {"smiles": "CC1(C)CC(=O)c2cn3c(nc2C1)nc1ccccc13", "inhibition": "inactive: -0.46%"},
      {"smiles": "Cc1ccc(C(=O)O)cc1NC(=O)c1cccs1", "inhibition": "inactive: -5.26%"},
      {"smiles": "CC(C)NNC(=O)c1ccncc1", "inhibition": "inactive: 0.95%"},
      {"smiles": "CC(=O)N(CCC1(C(C)C)CCOC(C)(C)C1)Cc1ccco1", "note": "(centres undefined)", "inhibition": "inactive: 7.02%"},
      {"smiles": "CC(=O)N=c1sc(S(N)(=O)=O)nn1C", "inhibition": "inactive: 1.87%"},
      {"smiles": "Cc1cc(C)c(NC(=O)NC(=O)C(Cl)(Cl)Cl)c(C)c1", "inhibition": "inactive: -18.5%"},
      {"smiles": "N=c1ccn(CC(=O)NC(N)=O)c2ccccc12", "inhibition": "inactive: 3.61%"},
      {"smiles": "OC(CCN1CCCCC1)(c1ccccc1)c1ccccc1", "inhibition": "inactive: 2.21%"},
      {"smiles": "CC(=O)[C@H]1[C@H](C#N)C[C@H]2[C@@H]3CC=C4C[C@@H](O)CC[C@]4(C)[C@H]3CC[C@@]21C", "inhibition": "inactive: 10.9%"},
      {"smiles": "COc1ccc(C(CC(=O)N2CCOCC2)C(C)C)cc1", "note": "(centres undefined)", "inhibition": "inactive: 0.73%"},
      {"smiles": "COc1c2occc2c(OC)c2c(=O)cc(C(F)(F)C(F)(F)F)oc12", "inhibition": "inactive: -2.44%"},
      {"smiles": "CCOc1ccc2[nH]c3c(=O)n(CCc4ccc(OC)cc4)cnc3c2c1", "inhibition": "inactive: -8.8%"},
      {"smiles": "Cc1ccccc1C(=O)NNc1ncnc2c1cnn2C", "inhibition": "inactive: -9.85%"},
      {"smiles": "COc1ccc2[nH]cc(C3N4CC5(C)CN3CC(C)(C4)C5=O)c2c1", "note": "(centres undefined)", "inhibition": "inactive: -6.17%"},
      {"smiles": "C=CCc1ccc(OCC(O)COc2ccc(CC=C)cc2OC)c(OC)c1", "inhibition": "inactive: -8.22%"},
      {"smiles": "COc1ccc(-c2[nH]ncc2CN(C)C(C)c2ccon2)c(OC)c1", "note": "(centres undefined)", "inhibition": "inactive: -1.59%"},
      {"smiles": "Cc1ncoc1C(=O)N1CCCC(C(=O)c2ccc(-c3ccccc3)c(F)c2)C1", "note": "(centres undefined)", "inhibition": "inactive: 1.46%"},
      {"smiles": "CCSC(=O)CCCCCCCCCCCO", "inhibition": "inactive: -8.36%"},
      {"smiles": "C[C@H](CCC(=O)O)[C@H]1CC[C@H]2[C@@H]3C(=O)C[C@@H]4CC(=O)CC[C@]4(C)[C@H]3CC(=O)[C@]12C", "inhibition": "inactive: -1.75%"},
      {"smiles": "CCOc1ccc(C(=O)NC(C)C2COc3ccccc3O2)cc1", "note": "(centres undefined)", "inhibition": "inactive: 5.34%"},
      {"smiles": "Cc1nc2sccn2c(=O)c1CCN1CCC(=C(c2ccc(F)cc2)c2ccc(F)cc2)CC1", "inhibition": "inactive: 3.16%"},
      {"smiles": "CCOC(=O)C1=C(C)NC(C)=C(C(=O)OC)C1c1cccc(Cl)c1Cl", "note": "(centres undefined)", "inhibition": "inactive: 1.49%"},
      {"smiles": "Cc1ccc2[nH]c3c(c2c1)CCNC3=O", "inhibition": "inactive: -3.14%"},
      {"smiles": "CC1(C)CC(=O)C2=C(C1)c1c(ccc3ccccc13)NC2c1ccco1", "note": "(centres undefined)", "inhibition": "inactive: 8.52%"},
      {"smiles": "O=C(O)CCC(=O)c1ccc(-c2ccccc2)cc1", "inhibition": "inactive: -14.3%"},
      {"smiles": "O=C1c2cccc3cccc(c23)C(=O)N1c1ccccn1", "inhibition": "inactive: 0.22%"},
      {"smiles": "CCN(CC)Cc1c[nH]c2c(C(=O)OC)cccc12", "inhibition": "inactive: -10.3%"},
      {"smiles": "COc1ccc(/C=C/C(=O)c2cc3cccc(OC)c3oc2=O)cc1", "inhibition": "active: 69.5%"},
      {"smiles": "CN1CCN2c3ccccc3Cc3ccccc3C2C1", "note": "(centres undefined)", "inhibition": "inactive: -7.6%"},
      {"smiles": "O=C(O)c1cnccn1", "inhibition": "inactive: 4.21%"},
      {"smiles": "Cc1ccc(/C=N/NC(=O)C2(C)CC2(Br)Br)cc1", "note": "(centres undefined)", "inhibition": "inactive: 3.81%"},
      {"smiles": "O=[N+]([O-])c1ccc(O)c2ncccc12", "inhibition": "inactive: 6.68%"},
      {"smiles": "COc1ccc(C2OC[C@H]3O[C@H](O)[C@H](NC(C)=O)[C@@H](O)[C@@H]3O2)cc1", "note": "(some centres undefined)", "inhibition": "inactive: -13.3%"},
      {"smiles": "N=c1nc(N2CCCCC2)cc(N)n1O", "inhibition": "inactive: 7.56%"},
      {"smiles": "CC(=O)Oc1ccc(C(c2ccc(OC(C)=O)cc2)c2ccccn2)cc1", "inhibition": "inactive: 7.59%"},
      {"smiles": "CCC1(c2ccccc2)NC(=S)N(c2ccc(C)c(C)c2)N1", "note": "(centres undefined)", "inhibition": "inactive: 20.9%"},
      {"smiles": "Cc1nc2ccccc2n1CC(O)Cn1c2ccccc2c2ccccc21", "note": "(centres undefined)", "inhibition": "inactive: 2.08%"},
      {"smiles": "O=C(O)CCCCCN=C1CCc2ccccc2N1", "inhibition": "inactive: -9.11%"},
      {"smiles": "Cc1ccc2c(CN3CCN(Cc4ccc5c(c4)OCO5)CC3)cc(=O)oc2c1C", "inhibition": "inactive: 17.1%"},
      {"smiles": "COC(=O)C1=NN(C(=O)c2cccc(Br)c2)C(O)(c2ccc(Cl)cc2)C1", "note": "(centres undefined)", "inhibition": "inactive: 0.8%"},
      {"smiles": "CC(NCCc1ccc(O)cc1)C(O)c1ccc(O)cc1", "note": "(centres undefined)", "inhibition": "inactive: -1.38%"},
      {"smiles": "CC(=O)OCC1OC(n2ccc(=O)[nH]c2=O)C(O)C1O", "note": "(centres undefined)", "inhibition": "inactive: -2.69%"},
      {"smiles": "COc1cccc(CC(=O)NCC2COc3ccccc3O2)c1OC", "note": "(centres undefined)", "inhibition": "inactive: 9.79%"},
      {"smiles": "CN(C)CCOC(=O)C(c1ccccc1)C1(O)CCCC1", "note": "(centres undefined)", "inhibition": "inactive: -2.98%"},
      {"smiles": "C[C@]12CCC3C(CC=C4C[C@@H](O)CC[C@@]43C)C1CCC2[C@]1(C)CCC(=O)O1", "note": "(some centres undefined)", "inhibition": "inactive: -1.05%"},
      {"smiles": "Nc1[nH]c(=O)ncc1F", "inhibition": "inactive: 1.19%"},
      {"smiles": "CC(C)(C)OC(=O)N1CC(O)CC1C(=O)OCC(=O)c1ccc(Cl)cc1", "note": "(centres undefined)", "inhibition": "inactive: -4.92%"},
      {"smiles": "COc1ccc(/C=C\\C(=O)c2c(O)ccc3c(C)cc(=O)oc23)cc1OC", "inhibition": "active: 59.1%"},
      {"smiles": "CCOC(=O)c1oc2cc(OCC(N)=O)ccc2c(=O)c1-c1ccc(OC)c(OC)c1", "inhibition": "inactive: -3.09%"},
      {"smiles": "S=C(NCCOCCOCCNC(=S)Nc1ccccc1)Nc1ccccc1", "inhibition": "inactive: 4.01%"},
      {"smiles": "Nc1ccc(C(=O)O)c(O)c1", "inhibition": "inactive: -11.3% and inactive: -10.4%"},
      {"smiles": "O=C(O)c1ccccc1Nc1cccc(C(F)(F)F)c1", "inhibition": "inactive: 4.65%"},
      {"smiles": "O=C(NCCc1nc2ccccc2[nH]1)c1cccc(Br)c1", "inhibition": "inactive: -3.16%"},
      {"smiles": "Cc1ccc2c(c1)c(C)cc(=O)n2CCC(=O)O", "inhibition": "inactive: -14.4%"},
      {"smiles": "CC(C)(C)NCC(O)COc1ccccc1C(=O)CCc1ccccc1", "note": "(centres undefined)", "inhibition": "inactive: -7.08%"},
      {"smiles": "OC(CCN1CCCC1)(c1ccccc1)C1CCCCC1", "note": "(centres undefined)", "inhibition": "inactive: -8.34%"},
      {"smiles": "COCCNC(=O)CSc1ccc(Cl)cc1", "inhibition": "inactive: -12.6%"},
      {"smiles": "CC(C)(C)c1ccc(/C=C/C(=O)N2CCCCC2)cc1", "inhibition": "inactive: -11.6%"},
      {"smiles": "NS(=O)(=O)c1cc2c(cc1Cl)NC(C1C[C@H]3C=C[C@@H]1C3)NS2(=O)=O", "note": "(some centres undefined)", "inhibition": "inactive: 4.08%"}
    ]}
  ]
}
